The whole screen tested about 150,000 compounds, of which about 540 (0.36%) showed an effect of 50% or more. Some of the results follow.
test system: Plasmodium falciparum; assay: Primary screen in NF54 nanoGlo assay, in single point, at 2uM, 72h; a lower Z score goes with more inhibition; assay type: functional, Erythrocyte; conditions: timepoint 72 hour

Row | Structure (SMILES) | % Inhibition [%] | Z score
1 | COc1ccc(C)cc1NC(=O)N1Cc2c(C)nn(-c3ccccc3)c2-n2cccc2[C@H]1c1ccc(Cl)cc1 | -4 | 0.72
2 | CN(C)c1nc(CNC(=O)C2CCN(Cc3ccco3)CC2)cs1 | -9 | 1.07
3 | CC1C(=O)NCCN1C(=O)C1CCCC(C(=O)O)C1 (stereo not drawn) | 5 | -0.7
4 | CC1COCCN1c1ncc(Cl)c(N2CCOCC2C)n1 (stereo not drawn) | 3 | -0.23
5 | CCOc1cc(CNc2cccc3nc(C(F)(F)F)[nH]c23)ccc1OC | 14 | -1.77
6 | COc1cccc(Cn2c(=O)c3c(C(=O)N4CCCCC4)cc(C)nc3n(-c3ccccc3)c2=O)c1 | 0 | 0
7 | C[C@@H](CN1CCCCC1)c1nc(C2(c3ccccc3)CC2)nn1CCO | -3 | 0.41
8 | COc1cc(N[C@H]2CCCN(Cc3nnc(C)n3C)C2)cc(OC)c1 | 27 | -3.69
9 | CC(C)=CC1C(C(=O)N(C)C2CCN(CC3CCOC3)CC2)C1(C)C (stereo not drawn) | -17 | 1.78
10 | Cc1cc2ccccc2n1CC(=O)N1CCC[C@H]2C(=O)N(C)C[C@H]21 | 6 | -0.77
11 | CN(C(=O)c1cccnc1)[C@H]1CCOc2ccc(Br)cc21 | -8 | 1.08
12 | Fc1ccccc1N1CCN(Cc2ccccn2)CC1 | -19 | 2.37
13 | Cc1cc(C(=O)Nc2nc3ccccc3n2C2CCCC2)nn1C | -6 | 1.25
14 | Cc1ccccc1OC[C@H](O)C(=O)NCCc1ncc[nH]1 | 3 | -0.53
15 | COc1ccncc1NC(=O)[C@@H]1CC(c2cc(F)ccc2F)=NO1 | -16 | 1.48
16 | CCOC(=O)NC[C@H](O)c1ccc2c(c1)CCO2 | 2 | -0.37
17 | COc1ccc(F)cc1C(=O)N1C[C@@H]2CC[C@H]1CN(c1ncccn1)C2 | 3 | -0.59
18 | CCc1nc(NCCCn2nc(C)nc2C)ncc1C | -13 | 1.25
19 | Cc1ccc(NCC(=O)NC[C@H]2CCS(=O)(=O)C2)cc1Cl | -3 | 0.34
20 | Cc1cc(C)c(CNC(=O)c2csc(CC(C)C)n2)c(=O)[nH]1 | -9 | 0.84
21 | Cc1noc2nc(CCC(=O)NCc3cccnc3)nc(N3CC(C)CC(C)C3)c12 (stereo not drawn) | -2 | 0.28
22 | CNC(=O)CN1c2ccccc2C(=O)N(C)[C@@H]1c1ccc2ccccc2c1 | -9 | 1.42
23 | CN1CC2CCC(C1)N2C(=O)Nc1ccccc1Cl | -2 | 0.17
24 | O=C1CN(C[C@H]2CCCOC2)CCN1Cc1ccccc1F | -18 | 2.26
